Test results from the RNAGym collection of RNA variant scans (doi:10.7554/elife.90254).
The source gives no read counts; variants with many changes may rest on few reads.

B1: LINE1-mini (parent)
chain: GGCAGAGCUCAACACAGCGUGGCAAAGUGGCUGUGGCUAGACUGCC

Variants of: B1
Assay: self-cleavage, relative activity (ratio to wild type); higher = more cleavage; in vitro, sequencing; the parent is a self-cleaving ribozyme

Variant	self-cleavage
G1A G2U U9A C13G U32A	0.1
G1A G7A C10U A11C	0.07
G1A U9A C10A A12C	0.03
G1A G5C G21C G36A G40A	0.04
G1A G7U A24C G27A	0.57
G1A G19A G40U C42U	0.06
G1A G5A A24G G33C U43A	0.05
G1A G36U C46U	0.07
G1A U9G C10U U20A	0.07
G1A G29C A41U	0.33
G1A G5A C8U	1.91
G1A G5U C18G G33A C46U	0.07
G1A G19U G30A	0.56
G1A G5U G19A C31G C42G	0.02
G1A G19U G27A C31G	0.04
G1A G7U G22C A26U	0.35
G1A G2U C10U C31A	0.05
G1A U9A A11U G17U A26U G40A	0.01
G1A G35C U38C U43G	0.19
G1A G2U C13U A39G	0.02
G1A G5U U20A A24G A25U U34C C42U	0
G1A G27C G29U	0.61
G1A G7C U32C	0.47
G1A G7C C8A A11U	0.05

Variant	self-cleavage
G1A G5A A14C A24U G30A	0.14
G1A G5A C18U	0.28
G1A G30A C46A	0.86
G1A G17U A24U G33C	0.05
G1A G17A C23U C31A U34A C45G	0.03
G1A G21C G22C	0.32
G1A G2U G17A C31G	0.12
G1A U9C G36A U38A	0.12
G1A U9A C10U	0.17
G1A G21C G30U	0.23
G1A G5A G7A	2.7
G1A G7U C15A C37A	0.35
G1A G2U C37G	0
G1A G5A G19C G27C C46G	0.14
G1A G2U A14C G36C G40U	0.07
G1A G7C C18U A26C G27C	0.69
G1A G19U C23U G30A U38G A41U U43G	0.06
G1A G17C C18A G21A G36A	0.28
G1A U9A A39C	0.04
G1A G17A C37A	0.16
G1A G5A A16U A26U U43C	0.09
G1A U9C A14U U20A G21A C31U C45A	0.02
G1A G19C C37A	0.02
G1A G7U C15G G22U A26C	1.59

Variant	self-cleavage
G1A G5A U9G A25G G36C C37U A41U	0.14
G1A G2U A12G	0.06
G1A G2U C13G U20G G27U U28A	0.12
G1A G2U A26U G30C	0.73
G1A G35C A41C	0.08
G1A U9A G17A G21C	0.4
G1A U9A U32G C42A C46U	0.21
G1A G17C C18A U20G	0.09
G1A G7C A11C A12G G21A G22U A26U C45A	0.02
G1A G35U C37A	0.11
G1A U9C G17U A39G	0.03
G1A G29C C31G	2.21
G1A G7C U43A	0.37
G1A G27U C31A	0.11
G1A G21U G22C G33A G40C	0.03
G1A G17U U28G G35C	0.05
G1A G7U A24U G33U	0.88
G1A G5C C8U C10U U38C	0.07
G1A G7A C10U G40A	0.03
G1A U9A C15G A24C U32A G35U U43G	0.09
G1A G7U G33C	0.3
G1A G5U A24C	0.13
G1A G17C G19C	0.24
G1A G33A A39G	0.09

Variant	self-cleavage
G1A G19C G33U	0.13
G1A G2U U9A G40A	0.32
G1A G5A G7A C8A	1.77
G1A G30A U38G C42A	0
G1A G2C U20A U32A	0.01
G1A G5U U20G G27A	0.24
G1A G7U G29A U38G	0.01
G1A G19A C23A G33C A39G G44A C46G	0.04
G1A G27C C31U U38A	0.53
G1A G30U G40U	0.02
G1A G30U G40C	0.02
G1A G21U G22C A24U C37U	0.04
G1A G7A U9G G17U U38G	0.08
G1A G21A G22A C31A	0.07
G1A G5C C8U G17U	0.16
G1A G17C C18U G36C U38C	0.01
G1A G17U G35A	0.1
G1A G17U G35U	0
G1A G5U A24C U38A	0.02
G1A G7A A11G A25U G30C	0.05
G1A G36C G40U	0.13
G1A G22C C37U	0.04
G1A U9A G40A	0.08
G1A G22C U28A	0.61

Variant	self-cleavage
G1A G7U U20C G27C G36U	0.03
G1A G5U G40U	0.06
G1A G40A C42A	0.23
G1A G2U C3U U9G G17C U34A A41C	0.19
G1A G7C G33A C46A	0.17
G1A G17A G21A U38A	0.11
G1A U9C A14U C31U	0.07
G1A G7U C15A C45U	0.35
G1A G17A C31A G40U C45A	0.01
G1A G30U G44U	0.21
G1A G21U C45U	0.57
G1A G27U U34C	0.03
G1A G17C A39U	0.29
G1A G5U U20A G27A G36C U38C C42U	0.15
G1A G19C G27A C42A G44C	0.05
G1A G5A G22C A39C	0.2
G1A G7C G19U C31G U34G C46A	0.13
G1A G5A U9C C10A	0.66
G1A G7C C8U U43C	0.29
G1A G2C G44U	0.05
G1A G17A U28A C45U	0.09
G1A G5U G27C	0.08
G1A G7A G29U C46G	0.19
G1A G17A G22C C45U	0.77

Variant	self-cleavage
G1A U9A A11U G33U A41G C42G	0.01
G1A G36C C37U A39G A41U	0.02
G1A G17A U20A G33C G35U C37G A41G	0
G1A G17U A26G	0.03
G1A G2C G29U C42G	0.05
G1A G5A G33U G35A	0.17
G1A U9A G21A A26U	0.26
G1A U9A C42G	0.29
G1A G27U G30C G33C U43A	0.03
G1A G17U C23A	0.95
G1A U9G A25C G33A G36A	0.12
G1A G5C A16G G19U G22C C37A	0.04
G1A G21U G40U	0.5
G1A G5A U38C C46A	0.1
G1A G40A C46A	0.17
G1A G21C G40A	0.15
G1A G7C U38C G44A	0.54
G1A G22A A25G U32A G40U C45A	0.08
G1A G2U C3U A4G G5C C23A	0.69
G1A G2U C8U G22A	0.13
G1A G2U C15A A24C G29U	0.09
G1A G19U G21U C23U G40A C42U	0
G1A G2U C42U	0.16
G1A G2U C42A	0.07

Variant	self-cleavage
G1A G2U G5A G22A	0.46
G1A U9G A24G	0.17
G1A G5A C10U A12U C18G G22C A39U U43A	0.16
G1A G7U G30A	0.07
G1A G19A U20A C23U G35C	0.07
G1A G27A G29U	1.29
G1A G5U A16G G36A	0.01
G1A G21C C23A G35U	0.08
G1A G5C U43A	0.06
G1A G22A U34G	1.38
G1A G7A C45U	1.51
G1A U9A G19C	0.11
G1A G21U G22U C42U	0.55
G1A G27C G36C	0.07
G1A G5A G22A G36U	0.14
G1A U9A C23A U28G	0.35
G1A G40U C42A	0.05
G1A G2U C3A G17C G29A G30A U32A G35A	0.32
G1A G7U U20A C31G G40U	0.14
G1A G35U C37G C46U	0.05
G1A G17A G19C A26G	0.07
G1A G2C G30U	0.59
G1A G19C G27U U32A	0.07
